Results on six molecules are retold here after PMC12481580 (Journal of Medicinal Chemistry, 2025).

Read-outs that look alike come from different tables or passages of the source. *1 amine or outer side, *2 acyl side, *3 side chain or, on linkers, in order; H or OH if unused. Where a SMILES comes first, the peptide text is derived from it. [ ]: non-standard residue; d: D form. X3 = CCC(=O)NCCCCNC(=O)/N=C(\N)NCCC[C@H](N[*:1])C(=O)[*:2]

For test [1], the target named is T1, NTS1R (Homo sapiens, UniProt P30989). Put plainly: flow cytometric competition binding at HT-29 cells using 19 or 21 as labeled probe. The conditions noted are these: for Hill coefficient of the displacement curve: 4-parameter logistic fit, mean ± SEM. (In general: Flow cytometry measures light scatter and fluorescence of single cells or particles in a stream.)

The next test has as its target NTS2R (Homo sapiens, UniProt O95665). Put plainly: radioligand competition binding with [3H]UR-MK300 at membranes of HEK293T-hNTS2R cells. The conditions noted are these: [3H]UR-MK300, membranes of HEK293T-hNTS2R cells; read-out: NTS2R pK i ± SEM (converted).
For test [2], the target named is T1, NTS1R. The conditions noted are these: for EC50: enhancement of NTS1R binding of 21, HT-29 cells, 23 °C, 21 c = 0.01 nM, biphasic curve.
The target in test [3] is T1, NTS1R. The conditions noted are these: cited from earlier work.

T1 sequence (P30989 whole entry): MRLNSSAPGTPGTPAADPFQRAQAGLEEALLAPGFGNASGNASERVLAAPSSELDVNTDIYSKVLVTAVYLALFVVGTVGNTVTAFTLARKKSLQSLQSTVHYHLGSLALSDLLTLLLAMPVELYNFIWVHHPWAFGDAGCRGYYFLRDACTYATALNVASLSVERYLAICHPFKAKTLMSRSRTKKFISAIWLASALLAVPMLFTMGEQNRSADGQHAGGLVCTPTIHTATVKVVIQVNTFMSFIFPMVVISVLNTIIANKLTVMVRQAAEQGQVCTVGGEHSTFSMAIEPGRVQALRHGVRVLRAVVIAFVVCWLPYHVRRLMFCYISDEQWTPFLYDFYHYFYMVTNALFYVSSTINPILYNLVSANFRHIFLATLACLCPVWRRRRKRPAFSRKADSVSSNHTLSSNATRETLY
Chain of UniProt O95665 (O95665 whole entry): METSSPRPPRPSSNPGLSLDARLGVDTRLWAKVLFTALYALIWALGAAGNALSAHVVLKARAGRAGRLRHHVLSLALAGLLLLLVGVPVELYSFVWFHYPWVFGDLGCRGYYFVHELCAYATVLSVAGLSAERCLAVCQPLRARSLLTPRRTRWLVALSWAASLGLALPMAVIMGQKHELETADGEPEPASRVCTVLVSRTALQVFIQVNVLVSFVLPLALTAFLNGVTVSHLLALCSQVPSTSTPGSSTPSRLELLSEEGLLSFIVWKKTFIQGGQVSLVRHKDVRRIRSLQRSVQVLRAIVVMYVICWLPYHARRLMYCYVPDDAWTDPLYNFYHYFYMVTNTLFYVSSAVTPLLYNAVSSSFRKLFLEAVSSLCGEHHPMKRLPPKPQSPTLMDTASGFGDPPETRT

Take SR142948: the “Hill coefficient of the displacement curve” value on NTS1R [1] (21 as labeled probe) was −0.63 ± 0.02. Further, at NTS1R [1] (flow cytometry, HT-29 cells, 23 °C, 0.1 nM 21, 180 min), the “pK i, 21 as labeled probe” value was 10.14 ± 0.08. The “pK i, 19 as labeled probe” value on NTS1R [1] (flow cytometry, HT-29 cells, 23 °C, 0.3 nM 19, 120 min) is on record as 9.70 ± 0.1.

As to `CC[C@H](C)[C@H](NC(=O)[C@@H](NC(=O)[C@@H]1CCCN1C(=O)[C@H](CCCNC(=N)N)NC(=O)[C@H](CCCNC(=N)NC(=O)NCCCCNC(=O)CCCCCN1\C(=C/C=C/C=C/C2=[N+](CCCCS(=O)(=O)[O-])c3ccccc3C2(C)C)C(C)(C)c2cc(S(=O)(=O)O)ccc21)NC)C(C)(C)c1ccc(O)cc1)C(=O)N[C@@H](C[Si](C)(C)C)C(=O)O` [compound 21, N ^α-Methyl-N ^ω-{[4-(N-{6-3H-[2-(5–3H-(1-(4-sulfonatobutyl)-3,3-dimethyl)indol-2-ylidenepent-1,3-dienyl)-3,3-dimethyl-5-sulfo]indol-1-ium-1-yl}hexanoyl)-aminobutyl]aminocarbonyl}Arg-Arg-Pro-β,β-dimethyl-L-Tyr-Ile-β-trimethylsilyl-Ala Tris(hydrotrifluoroacetate)], at NTS2R, the Ki is 0.724 nM.

The EC50 is the concentration giving half of the maximal effect. As for `COc1ccccc1C1CCN(c2nc(C3(F)CC3)nc3ccc(N(C)CCO)cc23)CC1` [SBI-553], the EC50 on NTS1R [2] (pEC50(high)) was 0.0427 nM; at NTS1R [2] (pEC50(low)), 52.5 nM. Besides, the Emax at 10 pM at NTS1R [2] (read-out: E max (difference between lower and upper plateau)) amounted to 88%.

With “neuromedin N: hexapeptide, endogenous NTS1R agonist”, in the test with NTS1R [3] (ref Skrzydelski et al.), the Ki was 1.9 nM.

`COc1cccc(OC)c1-c1cc(C(=O)NC2(C(=O)O)C3CC4CC(C3)CC2C4)nn1-c1ccnc2cc(Cl)ccc12` (centres unmarked) [SR48692]: the “pK i, literature” value on NTS1R [3] (Reported K i values were converted to pK i values, ref not given) is listed as 8.07. Besides, the “Hill coefficient of the displacement curve” value on NTS1R [1] (21 as labeled probe) is −0.55 ± 0.06. The Ki on NTS1R [1] (flow cytometry, HT-29 cells, 23 °C, 0.1 nM 21, 180 min, read-out: pK i, 21 as labeled probe (converted)) was 3.24 nM; on NTS1R [1] (flow cytometry, HT-29 cells, 23 °C, 0.3 nM 19, 120 min, read-out: pK i, 19 as labeled probe (converted)), 5.62 nM.

In the case of `CCC(=O)NCCCCNC(=O)/N=C(\N)NCCC[C@H](N)C(=O)N[C@@H](CCCNC(=N)N)C(=O)N1CCC[C@H]1C(=O)N[C@@H](Cc1ccc(O)cc1)C(=O)N[C@H](C(=O)N[C@@H](CC(C)C)C(=O)O)[C@@H](C)CC` [UR-MK300] (H-[X3]RPYIL-OH), the Ki at NTS1R [1] (pK i, 19 as labeled probe, flow cytometry, HT-29 cells, 23 °C, 0.3 nM 19, 120 min) is 0.141 nM; on NTS1R [1] (pK i, 21 as labeled probe, flow cytometry, HT-29 cells, 23 °C, 0.1 nM 21, 180 min), 0.0891 nM.
